Values marked as one replicate rest on one cluster of the flow cell; about a third of the high ones do not repeat.
System: ATP
Assay: switch fluorescence ratio, 500 uM ATP over buffer (Cy3 cluster intensity, sum of 5 cycles each) (fold (ratio)); higher = stronger signal-on switching upon ATP binding; sequences stand for … in TCGTCGGCAGCGTCAGATGTGTATAAGAGACAGTTTTTTTTTTTTTTTTTTTTTTTTT…TC
Settings: aptamer strand: ATP DNA aptamer (quencher-CACCTGGGGGAGTATTGCGGAGGAAGG + anchor), 100 nM annealed; ATP concentration: 500 uM; one replicate
Method in brief: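 The quencher-labelled ATP aptamer, at 100 nM, was annealed to Cy3-labelled switching-strand clusters on a modified Illumina MiSeq flow-cell. The clusters were imaged in selection buffer, then after 15 min with 500 uM ATP at 22 °C, and this buffer/ATP cycle ran five times with NaOH stripping and re-annealing between runs. Per-cluster fluorescence ratios, summed target-cycle over summed buffer-cycle Cy3 intensity, were averaged per switch-domain sequence. Clusters outside 100-1000 RFU were excluded.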
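Further: ATP exposure 15 min at 22 °C before imaging.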

Sequence	switch fluorescence ratio
TAAACGTCTT	1.14
CCTGGGAATA	1.09
ATTTCCTGTA	1.01
GAGTTGATG	0.997
TGAGAGGCGC	1.03
TTGATAGTTC	0.978
GTCATCCTGT	0.983
ATTTTAGGCG	0.932
ATGTTCAGAG	0.984
AGTCGTCCTG	1.03
GACACGGCTT	1.03
CGTCAGTCCC	1.03
TACGTAAGAA	1.12
GATGAGTGCG	1.05
ACGACTCAGC	1.41
AATCACTAGG	1.05
CCGTTTTCGA	0.973
GGCTTTGCG	1.01
CTCAGATA	0.987
CAAGCCGACT	1
TTTTGAATA	1.05
CCCCCCGCGG	2.18
ACTGGTGGGG	1.03
TGTAATACTA	1.16
AACATCGGTC	1.03
CTTCCCACTA	1.11

Sequence	switch fluorescence ratio
CCGCTTAACA	2.09
TGTTTGTTTT	0.996
GGGCGAATTC	1.01
TGACTATACT	1.35
TGCTAGCGGA	0.983
AATCGTAACC	1.04
TCGGATGTTA	0.993
CTTGTCTAAA	0.979
GGACCTATAT	1
CTGGGTGTGG	0.978
GGTACGAAGG	0.956
ATCGAGAA	1.03
TCTTTTTGCT	1.29
ACCGCCTGCG	1.06
TGTAGTTCTG	0.99
TCAAGACCA	0.988
GGAGTTACCA	1.01
TCTGGGGATA	1.03
CATTGGGATC	1.03
AAGGTGATTG	0.965
AGTCTCTATA	1.03
TGGAGAGGCG	0.986
CTGCACAGGG	1.12
ACGGTAAATA	1.03
TAGTACGTTT	1.13
TGCCTGGGTA	1.04

Sequence	switch fluorescence ratio
GAATTAGCT	1.03
ACCAAGGTAC	1.59
ATATGAAGTC	0.967
GATATACCGA	1.11
AGCAGTTAT	1.02
ATTGCCCTGC	0.99
AAGCTCTTGG	1.01
CTGTTAATG	0.982
CGTATCATTT	0.959
ATGTGAAT	0.966
CCGTAGGCGT	1.12
CTTGCGCTGC	1.47
CCTGTGAGGG	1.03
GCCGGATTGT	1.02
CGGATTGTTC	0.988
AGATTATTCT	0.946
AAGATTATCC	0.978
CATTCTCGGT	1.01
ATCCTTTGCT	1.07
AAGGGTGGCT	1.03
CCCAGAGCTG	1.3
CCACGCCTTC	1.79
TGGTCCCTGG	1.04
GACGACTTTA	1.07
TAGAACGGGC	1.01
ATTCAGAGGT	0.983

Sequence	switch fluorescence ratio
TTAGATTAGT	0.991
ATTAGTCCGC	1.4
CAATGGACGA	1.02
AGGTGGCGCG	0.976
TGCAAGCGGC	1.05
CTTTGCTTTC	1.19
TACATCAGCT	1
AGGGAGCTAA	1.03
TCACTTTTCA	0.993
GGCCTTGCTG	1.02
AAGAAACGGT	0.975
CCCGGTGTCA	1.29
GGATGAGCCC	1.02
CGGAAGAACA	1.29
ATGCAAGGGG	1.03
TTTGTCCCGG	1
TTAGCATAGG	1.02
ATTCCTTGAA	1
CGTATCGGG	1.03
ATCTTCTTTA	0.955
AGGATGTCGA	1.01
AAACTTCTTT	1.01
AATTCAGTCG	0.981
TGTGAGAGCC	1.02
TTAAGCTATG	1.01
TTGCGGAGAA	0.873

Sequence	switch fluorescence ratio
TTAGTCGGTT	0.997
CGAGCGATTA	1.63
GCGCATGGAA	1.02
TGTTCAGTAC	1.1
CACCTCAGTC	1.02
CTGGCAGGGG	1.12
TTGTCGCTAG	0.958
AGCCAAGGCT	0.996
TATTCAAGGC	1.11
GCCAGAGGGC	1.04
TAAACTAAGT	1.03
CCGAAAGAAA	1.11
GAATTGGCAA	1.01
ACATATTTAG	1.02
ACGCAAATGT	1.3
GAGATGGT	0.98
TACCACCAGC	1.23
CAAAGGAAG	1.06
GTGAGATAGA	0.973
CATGGATGTA	1.01
AACATACTCT	1.22
AACGGTTAGC	1.02
ACTCCGTGGT	4.86
TCGAGCTTCC	2.5
GCAATAAGGA	1.19
ATTATTTCGG	0.986

Sequence	switch fluorescence ratio
GAGGCTTTGG	1.05
GCCGGATAGT	1.01
CCAGGGCTAA	1.08
TAACCCGCCA	1.23
ACCCGTAGAC	4.21
CGCCTCTATT	1.07
TATGATGACC	1.01
AGACTTGTTG	0.995
TTCGGATGAC	1.73
CGGCGCCCGC	1.1
ACGATTTTTG	0.963
CGGGTGCTGG	0.977
TATGGTCACG	1
TCCATGTCGC	0.985
CAAGTGTTGA	1.06
CCTGTAGGAA	1.04
GGACTTGGAG	0.939
ATGACATCCT	1.04
TAGGGGCGTT	0.981
TCGTGGGAGG	0.979
AGGCGAGGT	1
GTTGGATTCA	0.977
CTGCAGGTTC	1.27
